Test results: ChEMBL document CHEMBL4888484, “Replenishing the malaria drug discovery pipeline: Screening and hit evaluation of the MMV Hit Generation Library 1 (HGL1) against asexual blood stage Plasmodium falciparum ,using a nano luciferase reporter read-out” (2022)
Out of some 150,000 compounds screened, about 540 (0.36%) showed an effect of 50% or more. Some of the results follow.

test system: Plasmodium falciparum; assay: Primary screen in NF54 nanoGlo assay, in single point, at 2uM, 72h; a lower Z score goes with more inhibition; format: functional, Erythrocyte; details: timepoint 72 hour

Row | SMILES | % Inhibition | Z score
1 | CN1CCC(C(=O)NC2CCCc3ccccc32)CC1=O (stereo not given) | -14% | 1.2
2 | COCc1nsc(NC(=O)c2nnn(CC3CCCC3)c2C)n1 | -13% | 1.64
3 | COc1ccc(CCC2CCCCN2C(=O)C(C)N)cc1OC (stereo not given) | -6% | 0.7
4 | COc1ccc(F)c(NCc2cnc3cnccn23)c1 | -4% | 0.45
5 | O=C(NC1CC1c1ccc(OCc2ccccc2)cc1)C1CCOC1 (stereo not given) | -3% | 0.36
6 | COc1ccc(C(=O)N2c3ccccc3OC(=O)[C@@H]2CC(=O)Nc2ccccc2)cc1 | 9% | -1.15
7 | CC1(C(=O)NCCS(N)(=O)=O)CC2CCC1C2 (stereo not given) | 0% | -0.07
8 | COc1cc(NC(=O)N[C@H]2CCN(CC(F)F)C2)ccn1 | -8% | 1.61
9 | O=C(CCCn1cncn1)NCc1ccc2cc[nH]c2c1 | -7% | 1.07
10 | CCCOc1ccc(Cl)cc1CNC(=O)N1CCO[C@H](C(=O)N(C)C)C1 | -11% | 1.03
11 | CCC1(CC)CN(c2ccnc(C(=O)NCCOC)c2)CCO1 | -2% | 0.19
12 | CCn1ncc(CNC(=O)C2CCCC2)c1C | -6% | 0.73
13 | CCCCNC(=O)N1CCC(N(Cc2ccc(F)cc2)C(=O)CN(CCC)S(=O)(=O)CCC)CC1 | -2% | 0.28
14 | CN(C(=O)c1csc(NC2CCCCC2)n1)C1CC(O)C1 (stereo not given) | -7% | 1.04
15 | O=C(N[C@H]1C[C@H]2OCC[C@@H]12)c1ccc2cccc(Cl)c2n1 | -18% | 2.85
16 | Cc1c(CC(=O)N2CCCO2)c2c(n1Cc1ccccc1F)CCCC2=O | -14% | 2.14
17 | O=C(N[C@@H](CCO)C1CCCC1)c1cncc(N2CCCC2=O)c1 | -10% | 0.96
18 | O=C(Cn1nc(C2CC2)ccc1=O)Nc1cc[nH]n1 | 6% | -0.81
19 | CS(=O)(=O)N(CCN1CCOCC1)C1CN(C(=O)COc2ccc(F)cc2)C1 | 3% | -0.36
20 | C[C@@H](C1CC1)N(C)C(=O)COCc1ccccc1 | -1% | 0.07
21 | CC(C)c1cc(CNC(=O)c2cc(F)c(F)c(O)c2F)on1 | -13% | 1.11
22 | CCN(CC)c1nc2cc(C(=O)NCc3ccc(F)cc3F)ccc2c(=O)n1Cc1ccccc1 | -7% | 1.38
23 | C=CCCC(=O)NC[C@H]1CCCN1c1ncccn1 | -2% | 0.23
24 | Cc1nnc2n1C[C@@H](Nc1ccc(C(=O)Nc3ccccc3)nn1)CC2 | -1% | 0.22
25 | O=C(NCCn1ccnc1)NCC1(c2ccccc2)CC1 | 7% | -0.69
26 | Cc1ccc(-c2noc(-c3cccc(S(=O)(=O)N4CCN(c5cccc(C)c5)[C@@H](C)C4)c3)n2)cc1 | -1% | 0.12
27 | Cc1noc(C2CCN(C(=O)c3ccccc3-n3cnnn3)CC2)n1 | -11% | 2.37
28 | CC1=C(C(=O)N(C)Cc2nccs2)OCCO1 | 11% | -1.48

Row | SMILES | % Inhibition | Z score
29 | C[C@H]1CCN(CCC(=O)N(CC#N)CC#N)c2ccccc21 | -3% | 0.44
30 | CCc1nnsc1C(=O)N1CCCN(C(C)=O)CC1 | -16% | 1.35
31 | CN1C(=O)[C@@H]2CC[C@H]1CN(Cc1cnc(NCc3ccccc3)nc1)C2 | -18% | 1.78
32 | O=C(Cc1cnc2ccccc2c1)NCCC(=O)Nc1cccnc1 | 5% | -0.47
33 | CC1=C(c2ccccc2)[C@H]1C(=O)NCc1cc(C2CC2)on1 | -8% | 1.23
34 | Cc1nn(-c2ccc(F)cc2)c2[nH]nc(NC(=O)COCC3CC3)c12 | -8% | 1.26
35 | Cc1nnsc1C(=O)N1C2CCC1CC(N1C(=O)CCC1=O)C2 (stereo not given) | -11% | 1.2
36 | Cc1ccc(C(=O)NCC[C@H](C)N2CCN(C)CC2)n1C(F)F | -2% | 0.47
37 | CC1C(=O)C(C(=O)NCc2ccncc2)C(=O)N1Cc1ccccc1 (stereo not given) | -1% | 0.21
38 | Cc1ccc(C)c(NCc2cc(=O)n3cc(C)ccc3n2)c1 | 27% | -3.01
39 | Cn1c(=O)c(CN2CCCC2)cc2ccc(Cl)cc21 | -1% | 0.16
40 | C[C@H]1CCCCN1CC(=O)NCCC#N | -13% | 2.63
41 | CN1C(=O)C2(CCN(Cc3ccncc3)CC2)C[C@H]1C(=O)NC1CCCC1 | -6% | 0.74
42 | O=C(O)C1=NN(c2ccc(F)cc2)C(=O)CC1=O | 31% | -3.48
43 | O=C(c1cn(CCN2CCOCC2)nn1)N(CC1CCC1)C[C@H]1CCCO1 | -5% | 0.92
44 | C[C@@H](CNc1ccc(F)cc1C#N)Cn1ccnc1 | -8% | 1.05
45 | COc1ccc(CN2C(=O)[C@@H]3C[C@@H](O)CN3C3(CN(Cc4c[nH]cn4)C3)C2=O)cc1 | 32% | -3.62
46 | CCOc1ccc(CNC(=O)CCC(=O)N2C[C@@H]3CCCN3c3ccccc32)cc1OC | -14% | 1.55
47 | CCC[C@](C)(NC(=O)c1cc(OC)ccc1O)C(=O)OC | -6% | 0.53
48 | CNC(=O)Cn1cc(NC[C@H]2CC2(Cl)Cl)cn1 | -1% | 0.18
49 | CCNC(=O)c1ccc(NCc2cncc(OC)c2C)cc1 | 6% | -0.95
50 | C[C@@H]1CN(C(=O)c2cccc(-c3ccc4cnc(N)cc4c3)c2)C[C@H](C)O1 | -8% | 0.89
51 | CCNc1ncc(C(=O)N2CCN(C/C=C/c3ccccc3)CC2)cn1 | -9% | 1.77
52 | CC(NC1CCN(C(=O)COc2ccccc2)C1)c1cccc(C#N)c1 (stereo not given) | 3% | -0.41
53 | CC(C)n1ccnc1[C@H]1CCCN(C(=O)c2cnc3c(c2)CCCC3)C1 | 3% | -0.26
54 | OC[C@H](Cc1c[nH]c2ccccc12)Nc1cc(-n2ccnc2)ncn1 | -6% | 0.76
55 | Cc1ccc(C(=O)Nc2ncn(Cc3c(F)cccc3Cl)n2)cc1 | -15% | 1.74
